102 sequences from the supplement of paper PMC12067230 can be followed below.

This is a noisy data set.
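Further: [psi-pin-] Saccharomyces cerevisiae expressing SupN fusions, induced by 100 µM Cu2SO4, selected 7 d at 30 °C without adenine and uracil, scored by deep sequencing of output versus input.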

The nature of the first data set: amyloid nucleation score relative to library mode (yeast Sup35 reporter selection) (log enrichment difference); higher = more amyloid nucleation; sequences are the first 22 residues of the Bri2 peptide extended by up to 12 random residues. Particulars: random library (experiment): 1;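 active = nucleation score significantly above 0 at FDR 0.05; inactive = not significantly above 0 or absent from output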.
In turn, EASNCFAIRHFENKFAVETLICDKYGHNGDVSGL showed an amyloid nucleation score of 0.451.

For the sequence EASNCFAIRHFENKFAVETLICDL, the amyloid nucleation score result is “inactive”.

On to EASNCFAIRHFENKFAVETLICDLAMMRVWRDRF, for which the amyloid nucleation score entry is “inactive”.

In the case of EASNCFAIRHFENKFAVETLICDLCRAWGGMFSV, the amyloid nucleation score entry was “inactive”.

Sequence EASNCFAIRHFENKFAVETLICDLDSG showed an amyloid nucleation score of 0.864.

Regarding EASNCFAIRHFENKFAVETLICDLEFIVKWRVRM, the amyloid nucleation score result was “inactive”.

With EASNCFAIRHFENKFAVETLICDLEKGHISRTCS, the amyloid nucleation score entry was “inactive”.

Regarding EASNCFAIRHFENKFAVETLICDLEYASELVIGW, the amyloid nucleation score entry is “inactive”.

For the sequence EASNCFAIRHFENKFAVETLICDLFIEP, the amyloid nucleation score entry was “inactive”.

As for EASNCFAIRHFENKFAVETLICDLHLWMKKRYGI, the amyloid nucleation score result is “inactive”.

Take EASNCFAIRHFENKFAVETLICDLHRPVKNCVMP: the amyloid nucleation score result is “inactive”.

Turning to EASNCFAIRHFENKFAVETLICDLIASRVTINEW, the amyloid nucleation score was found to be 0.49.

Consider EASNCFAIRHFENKFAVETLICDLIVMLFKCDIR, for which the amyloid nucleation score entry was “inactive”.

With EASNCFAIRHFENKFAVETLICDLLIGLLKGSEL, the amyloid nucleation score result was “inactive”.

EASNCFAIRHFENKFAVETLICDLLKYRSNLKRK: the amyloid nucleation score entry is “inactive”.

As to EASNCFAIRHFENKFAVETLICDLMED, the amyloid nucleation score result was “inactive”.

For EASNCFAIRHFENKFAVETLICDLMPLSWRGARR, the amyloid nucleation score entry is “inactive”.

EASNCFAIRHFENKFAVETLICDLMVGWYGLHLL: the amyloid nucleation score result was “inactive”.

Turning to EASNCFAIRHFENKFAVETLICDLNRDESCLTLQ, the amyloid nucleation score entry is “inactive”.

Consider EASNCFAIRHFENKFAVETLICDLRANKAGVAVE, for which the amyloid nucleation score was -0.129.

For EASNCFAIRHFENKFAVETLICDLRDLRI, the amyloid nucleation score result is “inactive”.

As to EASNCFAIRHFENKFAVETLICDLSGADGTTLPS, the amyloid nucleation score result was “inactive”.

EASNCFAIRHFENKFAVETLICDLSLLTWACCTV showed an amyloid nucleation score of 7.62.

As to EASNCFAIRHFENKFAVETLICDLSMVLMSTKML, the amyloid nucleation score entry was “inactive”.

As to EASNCFAIRHFENKFAVETLICDLSWARCKAGVP, the amyloid nucleation score result was “inactive”.

For the sequence EASNCFAIRHFENKFAVETLICDLSWRLLVIDEM, the amyloid nucleation score entry was “inactive”.

With EASNCFAIRHFENKFAVETLICDLTIDNLGIEHV, the amyloid nucleation score result is “inactive”.

EASNCFAIRHFENKFAVETLICDLTQDERFPCCC: the amyloid nucleation score entry is “inactive”.

Turning to EASNCFAIRHFENKFAVETLICDLTY, the amyloid nucleation score entry is “inactive”.

Consider EASNCFAIRHFENKFAVETLICDLVKKRGFVSHQ, for which the amyloid nucleation score entry was “inactive”.

For the sequence EASNCFAIRHFENKFAVETLICDLVMKKF, the amyloid nucleation score result is “inactive”.

Take EASNCFAIRHFENKFAVETLICDLVRLSRGGVGT: the amyloid nucleation score result is “inactive”.

EASNCFAIRHFENKFAVETLICDLWTFNAMSMNA: the amyloid nucleation score entry was “inactive”.

On to EASNCFAIRHFENKFAVETLICDLYISISLLLPP, for which the amyloid nucleation score result is “inactive”.

With EASNCFAIRHFENKFAVETLICDLYRMCRSCDMG, the amyloid nucleation score result is “inactive”.

EASNCFAIRHFENKFAVETLICDLYSSSIPHTHF: the amyloid nucleation score turned out to be 1.37.

As for EASNCFAIRHFENKFAVETLICDLYYVFERSTTR, the amyloid nucleation score entry was “inactive”.

Sequence EASNCFAIRHFENKFAVETLICDM yielded an amyloid nucleation score of -0.179.

In the case of EASNCFAIRHFENKFAVETLICDMATLGPLSVSV, the amyloid nucleation score entry was “inactive”.

As to EASNCFAIRHFENKFAVETLICDMATVGWWDGGQ, the amyloid nucleation score result was “inactive”.

EASNCFAIRHFENKFAVETLICDMCGWLRYLGRV registered an amyloid nucleation score of 7.58.

Regarding EASNCFAIRHFENKFAVETLICDME, the amyloid nucleation score entry was “inactive”.

In turn, EASNCFAIRHFENKFAVETLICDMFWRCGHRVMR came in with an amyloid nucleation score of 2.19.

Turning to EASNCFAIRHFENKFAVETLICDMGCARITVKAG, the amyloid nucleation score result is “inactive”.

For EASNCFAIRHFENKFAVETLICDMGG, the amyloid nucleation score result was “inactive”.

With EASNCFAIRHFENKFAVETLICDMLRSLGYEMPE, the amyloid nucleation score entry was “inactive”.

With EASNCFAIRHFENKFAVETLICDMLVKK, the amyloid nucleation score result is “inactive”.

Sequence EASNCFAIRHFENKFAVETLICDMMGLSALARDP yielded an amyloid nucleation score of 0.268.

EASNCFAIRHFENKFAVETLICDMPRARH displayed an amyloid nucleation score of 2.2.

As to EASNCFAIRHFENKFAVETLICDMTSQLYRKSVY, the amyloid nucleation score result is “inactive”.

Take EASNCFAIRHFENKFAVETLICDMV: the amyloid nucleation score entry is “inactive”.

Turning to EASNCFAIRHFENKFAVETLICDMWYSACTGLLW, the amyloid nucleation score was -0.345.

As for EASNCFAIRHFENKFAVETLICDMYHWNLMAWMA, the amyloid nucleation score result was “inactive”.

Take EASNCFAIRHFENKFAVETLICDMYRVGGSCRVA: the amyloid nucleation score result is “inactive”.

The same data set, now with this note: random library (experiment): 2.
On to EASNCFAIRHFENKFAVETLICDLCKVS, for which the amyloid nucleation score result is “inactive”.

For EASNCFAIRHFENKFAVETLICDLCVRGRLAEC, the amyloid nucleation score result is “inactive”.

Take EASNCFAIRHFENKFAVETLICDLFLKL: the amyloid nucleation score entry was “inactive”.

Turning to EASNCFAIRHFENKFAVETLICDLGVYYFYGRSG, the amyloid nucleation score worked out at 1.51.

EASNCFAIRHFENKFAVETLICDLIYNTSPSIDP: the amyloid nucleation score entry is “inactive”.

Take EASNCFAIRHFENKFAVETLICDLLSRAQCSLRE: the amyloid nucleation score result is “inactive”.

For the sequence EASNCFAIRHFENKFAVETLICDLLSTLVKRTGC, the amyloid nucleation score result was “inactive”.

Turning to EASNCFAIRHFENKFAVETLICDLPALMGESHWA, the amyloid nucleation score result was “inactive”.

Regarding EASNCFAIRHFENKFAVETLICDLRIWLVSVRGS, the amyloid nucleation score result is “inactive”.

Regarding EASNCFAIRHFENKFAVETLICDLSAA, the amyloid nucleation score entry was “inactive”.

EASNCFAIRHFENKFAVETLICDLSWLSECWGSD gave an amyloid nucleation score of 7.12.

In turn, EASNCFAIRHFENKFAVETLICDLTVICYLGNGI had an amyloid nucleation score of 7.82.

In the case of EASNCFAIRHFENKFAVETLICDLV, the amyloid nucleation score result is “inactive”.

With EASNCFAIRHFENKFAVETLICDLVISPPQGSFG, the amyloid nucleation score entry is “inactive”.

EASNCFAIRHFENKFAVETLICDLWNWTCECV: the amyloid nucleation score was determined as 6.17.

On to EASNCFAIRHFENKFAVETLICDLYFSVSSVMGD, for which the amyloid nucleation score result was “inactive”.

For EASNCFAIRHFENKFAVETLICDLYGYGWSIRLF, the amyloid nucleation score result was “inactive”.

As to EASNCFAIRHFENKFAVETLICDLYKFWNSSMST, the amyloid nucleation score result was “inactive”.

Consider EASNCFAIRHFENKFAVETLICDMAFLSDMFRGM, for which the amyloid nucleation score came out at 4.24.

Take EASNCFAIRHFENKFAVETLICDMGLAYCNHYVN: the amyloid nucleation score result was “inactive”.

Turning to EASNCFAIRHFENKFAVETLICDMLFWMYKKCGL, the amyloid nucleation score entry is “inactive”.

For EASNCFAIRHFENKFAVETLICDMLKV, the amyloid nucleation score is 0.393.

Sequence EASNCFAIRHFENKFAVETLICDMTWVCVGKQVT came in with an amyloid nucleation score of 4.99.

As to EASNCFAIRHFENKFAVETLICDMVGN, the amyloid nucleation score entry was “inactive”.

The same data set, now with this note: random library (experiment): 3.
Take EASNCFAIRHFENKFAVETLICDKWFPGDPITAC: the amyloid nucleation score entry was “inactive”.

Turning to EASNCFAIRHFENKFAVETLICDLCVCYVWSVTC, the amyloid nucleation score was found to be 5.45.

EASNCFAIRHFENKFAVETLICDLFCKGLPVETR: the amyloid nucleation score result is “inactive”.

For EASNCFAIRHFENKFAVETLICDLGITYREILNA, the amyloid nucleation score result is “inactive”.

Turning to EASNCFAIRHFENKFAVETLICDLKGVGRIPECN, the amyloid nucleation score result was “inactive”.

Take EASNCFAIRHFENKFAVETLICDLLIRSDLRRGG: the amyloid nucleation score amounted to 1.48.

Sequence EASNCFAIRHFENKFAVETLICDLLSASVAAWSG showed an amyloid nucleation score of 0.

For the sequence EASNCFAIRHFENKFAVETLICDLMARCDGDLHG, the amyloid nucleation score entry is “inactive”.

For the sequence EASNCFAIRHFENKFAVETLICDLMVYYTDEFMD, the amyloid nucleation score result is “inactive”.

With EASNCFAIRHFENKFAVETLICDLNGWPSSVSPE, the amyloid nucleation score result is “inactive”.

As for EASNCFAIRHFENKFAVETLICDLNLVPCCRAKW, the amyloid nucleation score came out at 4.39.

On to EASNCFAIRHFENKFAVETLICDLSRWVSRPRIW, for which the amyloid nucleation score came to 2.28.

EASNCFAIRHFENKFAVETLICDLTVSFLLWELG: the amyloid nucleation score entry was “inactive”.

The sequence EASNCFAIRHFENKFAVETLICDLVFRWRESSWR had an amyloid nucleation score of -0.188.

Consider EASNCFAIRHFENKFAVETLICDLWSLLQLWRRW, for which the amyloid nucleation score entry was “inactive”.

Regarding EASNCFAIRHFENKFAVETLICDLYNDLKQTNTL, the amyloid nucleation score result was “inactive”.

Turning to EASNCFAIRHFENKFAVETLICDMAYTKVVFGHW, the amyloid nucleation score was -0.0441.

Turning to EASNCFAIRHFENKFAVETLICDMFSDQYRAFAV, the amyloid nucleation score result was “inactive”.

Turning to EASNCFAIRHFENKFAVETLICDMINTSDITKYS, the amyloid nucleation score entry is “inactive”.

Regarding EASNCFAIRHFENKFAVETLICDMPFRWLDATWE, the amyloid nucleation score result was “inactive”.

With EASNCFAIRHFENKFAVETLICDMRVKYIFYKVS, the amyloid nucleation score result is “inactive”.

Regarding EASNCFAIRHFENKFAVETLICDMVLQEGSEGKR, the amyloid nucleation score entry is “inactive”.

In the case of EASNCFAIRHFENKFAVETLICDMVNTIGMHRMR, the amyloid nucleation score result is “inactive”.

With EASNCFAIRHFENKFAVETLICDMVSHRLFLI, the amyloid nucleation score entry is “inactive”.
